Measured values taken from PubChem BioAssay AID485281 (National Center for Advancing Translational Sciences (NCATS), 2010).
The campaign covered roughly 350,000 compounds. About 260 (0.074%) were called active. Inconclusive results, whose numbers are uncertain, are shown with a selection of clear calls. The call rests on the fitted dose curve; in most records, active means well fitted inhibition curve with a large enough effect; inconclusive means small, poorly fitted or top-dose-only effect; inactive means no such curve, though single readings can be large or run the other way. Potencies of inconclusive entries are doubtful fits and often do not repeat.

The compounds below were run against Ferritin light chain (Equus caballus) (UniProt P02791) (assay: qHTS Assay for Identification of Novel General Anesthetics). Conditions: apoferritin/1-aminoanthracene competitive binding, fluorescence; activity change, negative = displacement: at 77.5 µM (top of the series).
Procedure, shortened: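 Concentration-response curves derived by four-parameter Hill fitting of normalized fluorescence, where compounds displaced 1-AMA from 10 uM horse apoferritin following a brief 10 min room-temperature incubation; propofol titration acted as positive control.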
Further: nearly all actives have a fitted effect of over 20% in size.
On the % scale 0 is the no-effect control and ±100 the full control effect; potency means the concentration at half of the fitted maximal effect; tags describe the fitted curve by direction and shape.

Chain of UniProt P02791 (P02791 whole entry, looked up): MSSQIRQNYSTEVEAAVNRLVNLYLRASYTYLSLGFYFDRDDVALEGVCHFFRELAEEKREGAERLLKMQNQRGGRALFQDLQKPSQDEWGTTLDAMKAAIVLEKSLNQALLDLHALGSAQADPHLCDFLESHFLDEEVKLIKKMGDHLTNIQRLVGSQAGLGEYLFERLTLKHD

Row | Compound | activity change, negative = displacement | Potency
1 | O=C(Nc1ccccc1C(=O)O)c1cccc(NS(=O)(=O)c2ccc(Br)cc2)c1 | inactive: -8.48% | –
2 | CCOC(=O)Cn1c(=O)n(C2CCCCC2)c2nc(-c3ccccc3Cl)nc(C(N)=O)c21 | – | inconclusive: 22.4 µM [inhibitor, partial curve]
3 | O=C(Cc1ccccc1)N/N=C/c1ccc2cccc(O)c2n1 | – | inconclusive: 28.2 µM [inhibitor, partial curve]
4 | CC1CC(C)CN(c2cc(N(C)CCO)c([N+](=O)[O-])c3nonc23)C1 (configuration not stated) | – | inconclusive: 35.5 µM [inhibitor, partial curve]
5 | CC(C)(C)C1CCC2(CC1)C(C#N)=C(SCC(=O)NC1CCCCC1)NC(=O)C2C#N (configuration not stated) | – | inconclusive: 12.6 µM [inhibitor, partial curve]
6 | C=CCOc1ccc(/C=C/C(=O)OCC(=O)NCCC2=CCCCC2)cc1 | – | inconclusive: 14.1 µM [inhibitor, partial curve]
7 | COC(=O)c1cc(-c2ccc(C)cc2)n[nH]1 | inactive: -11.3% | –
8 | C/C(=N\NC(N)=O)C1(C)CCCCC1 | – | inconclusive: 8.91 µM [inhibitor, partial curve]
9 | COC(=O)[C@@H]1CCCN1C(=O)CCc1nnc(CCC2CCCCC2)o1 | – | inconclusive: 25.1 µM [inhibitor, partial curve]
10 | O=c1cc(-c2c(F)c(F)c(F)c(F)c2F)oc2c(F)c(F)c(F)c(F)c12 | – | inconclusive: 12.6 µM [inhibitor, partial curve, poor fit]
11 | Clc1ccc(CSc2ccc(-c3cccnc3)nn2)cc1 | – | inconclusive: 22.4 µM [inhibitor, single point]
12 | CC(C)CC(=O)Nc1ccc(S(=O)(=O)NCc2ccco2)cc1 | – | inconclusive: 28.2 µM [inhibitor, single point]
13 | Cc1[nH]n(-c2cccc3ccccc23)c(=O)c1/C=N/c1sc2c(c1C#N)CCC2 | – | inconclusive: 31.6 µM [inhibitor, partial curve]
14 | Nn1cnc2sc3c(c2c1=O)CCC3 | – | inconclusive: 15.8 µM [inhibitor, partial curve]
15 | O=C(COc1ncnc2sccc12)NC1CCCc2ccccc21 (configuration not stated) | inactive: -12.2% | –
16 | COc1cccc(OCC(O)CNC(=O)c2oc3ccc(C)cc3c2C)c1 (configuration not stated) | – | inconclusive: 25.1 µM [inhibitor, partial curve]
17 | CSc1oc(-c2ccc(F)cc2)nc1S(=O)(=O)c1ccc(F)cc1 | inactive: -6.53% | –
18 | O=C(OC1CCCCC1=O)c1cc(Cl)ccc1[N+](=O)[O-] (configuration not stated) | – | inconclusive: 25.1 µM [inhibitor, partial curve]
19 | Cc1cccc(CNC(=O)c2ccc3nc(-c4ccccc4)c(-c4ccccc4)nc3c2)c1 | inactive: -4.06% | –
20 | CC(C)c1cc(C(=O)N2CCCC(C(=O)c3ccc4ccccc4c3)C2)on1 (configuration not stated) | – | inconclusive: 31.6 µM [inhibitor, partial curve]
21 | CCC12CN3CC(C)(CN(C1)C3c1c(C)n(C)c3ccccc13)C2=O (configuration not stated) | inactive: -11.5% | –

Row | Compound | activity change, negative = displacement | Potency
22 | CCOc1ccc(NC(=O)/C(C#N)=C/c2cn(CC(=O)O)c3ccccc23)cc1 | – | inconclusive: 35.5 µM [inhibitor, partial curve]
23 | CC(C)(C)c1ccc(C(=O)NC2=NC(c3cccc(F)c3)CC(=O)N2)cc1 (configuration not stated) | – | inconclusive: 11.2 µM [inhibitor, single point]
24 | O=C(CNS(=O)(=O)c1c(Cl)cccc1Cl)OCc1csc(-c2ccccc2)n1 | – | inconclusive: 31.6 µM [inhibitor, partial curve]
25 | CCC(C)/C(C)=N/Nc1ccc(S(N)(=O)=O)cc1[N+](=O)[O-] (configuration not stated) | – | inconclusive: 25.1 µM [inhibitor, partial curve]
26 | Cc1ccc(NC(=O)N2CCN(C(=O)c3nsc4ccccc34)CC2)cc1C | – | inconclusive: 50.1 µM [inhibitor, single point]
27 | CCOc1ccc(C(=O)Nc2cc(-c3nc4ccccc4[nH]3)ccc2C)cc1[N+](=O)[O-] | – | inconclusive: 25.1 µM [inhibitor, partial curve]
28 | CCN(CC)S(=O)(=O)c1cccc(-c2nnc(SCC(=O)c3ccc(Cl)s3)n2C)c1 | – | inconclusive: 39.8 µM [inhibitor, partial curve]
29 | Cc1ccc(C(=O)c2sc(Nc3ccc(F)cc3)c(C#N)c2N)cc1 | – | inconclusive: 39.8 µM [inhibitor, partial curve]
30 | Cc1cccc(CCn2c(=O)c3ccccc3n(Cc3ccccc3C)c2=O)c1 | inactive: -4.36% | –
31 | Cc1ccc(S(=O)(=O)NCc2ccccc2)cc1 | – | inconclusive: 56.2 µM [inhibitor, partial curve, poor fit]
32 | COc1ccc(OC)c(NC(=O)C2COc3ccccc3O2)c1 (configuration not stated) | – | inconclusive: 39.8 µM [inhibitor, single point]
33 | O=C(NC(=S)Nc1ccc(Cc2ccncc2)cc1)c1ccccc1 | – | inconclusive: 35.5 µM [inhibitor, partial curve]
34 | CCOc1ccccc1NC(=O)N1CC(C)Oc2ccc(Cl)cc21 (configuration not stated) | – | inconclusive: 3.55 µM [inhibitor, single point]
35 | COCCNC(=O)c1ccc2c3n(nc2c1)-c1ccc(Cl)cc1CO3 | inactive: -2.96% | –
36 | O=C(NCC1CCCO1)c1csc2c1CCCCC2 (configuration not stated) | – | inconclusive: 39.8 µM [inhibitor, partial curve]
37 | CCS(=O)(=O)c1ccc2oc(Nc3cc(C)cc(C)c3)nc2c1 | – | inconclusive: 28.2 µM [inhibitor, single point]
38 | CN(c1ccc(C(=O)NCc2ccc3c(c2)OCO3)cc1)S(=O)(=O)c1ccccc1 | inactive: -6.64% | –
39 | COc1ccccc1NC(=O)C(C)N1CCN(C/C=C/c2ccccc2)CC1 (configuration not stated) | – | inconclusive: 35.5 µM [inhibitor, partial curve]
40 | O=C(COc1ccc(-n2cnnn2)cc1)NC(=O)NCc1ccccc1 | – | inconclusive: 31.6 µM [inhibitor, partial curve]
41 | CC(C)C(NS(=O)(=O)c1cccs1)C(=O)Nc1nc(C(C)(C)C)cs1 (configuration not stated) | – | inconclusive: 44.7 µM [inhibitor, single point]
42 | Cc1nnc(Oc2ccccc2)c2ccccc12 | – | inconclusive: 31.6 µM [inhibitor, partial curve]
